Measured values: the supplement of paper PMC4466236
Over roughly 33,000 sequences, “E-score (dimensionless, -0.5 to 0.5)” has its median near -0.058; the highest 2% begin near 0.35. Some of the results follow.

system: MvaT; experiment: PBM 8-mer E-score (mean of HK and ME arrays) (E-score (dimensionless, -0.5 to 0.5)); higher = stronger relative binding preference; most listed sequences are background and not binding sites
Method in brief: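 Reported values are rank-based E-scores, taken as the mean of two universal arrays and parsed with a custom script. Each 8-mer score falls between -0.5 and 0.5. The arrays, ME and HK, were double-stranded 60-mers with a constant 25-mer primer region and a variable 35-mer region covering all 8-mers. They were probed, by an earlier protocol, with full-length P. aeruginosa MvaT carrying an N-terminal glutathione S-transferase fusion.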

Row | Sequence | PBM 8-mer E-score
1 | GAAGTCTC | -0.0692
2 | CGGAAACA | 0.0997
3 | GATACACC | -0.0638
4 | AGGCCGGA | -0.0961
5 | ACGAACGT | -0.161
6 | CATAGACG | -0.0951
7 | CGCGACAA | -0.0861
8 | AGCCACAT | -0.177
9 | AACAGTGT | 0.123
10 | CACAAGCC | -0.235
11 | CGACGATC | -0.205
12 | CCCATTTA | 0.0372
13 | CTCACTTC | -0.111
14 | GATTTGGC | -0.105
15 | ATGCCCGA | -0.184
16 | AGCATAGA | -0.149
17 | ACGTCACT | -0.0725
18 | CCACATAA | 0.172
19 | CGGCGCAA | -0.16
20 | TAATATTA | 0.474
21 | CCTCTCGC | -0.254
22 | ATCGCAAT | 0.0839

Row | Sequence | PBM 8-mer E-score
23 | CGGTTGAA | 0.0195
24 | AGAGACGC | -0.292
25 | ATCGGAGG | -0.325
26 | ACATGCGG | -0.037
27 | AGTGGAGG | -0.269
28 | GCTATGCA | -0.113
29 | CTAGAGCA | -0.206
30 | ATCTACTC | 0.0097
31 | GTACAGGA | -0.0833
32 | ACTGTAAT | 0.351
33 | ACGCCGTG | -0.267
34 | ATTCTCAC | -0.0138
35 | GCCGCGAC | -0.169
36 | AATCATCG | -0.00377
37 | GGGCGACA | -0.032
38 | ATCCCGAG | -0.0733
39 | ATTAGGCC | -0.0555
40 | GAGGAATA | 0.197
41 | CATGTTAA | 0.25
42 | ACCAGTCC | -0.112
43 | ACTTTTTG | 0.122
44 | GTACTACA | 0.143

Row | Sequence | PBM 8-mer E-score
45 | TAGAATGA | 0.0266
46 | GACTTATC | 0.0104
47 | CACTTGAC | -0.0112
48 | AGCTACTA | 0.0104
49 | GCCCCGGC | -0.269
50 | CGGTCCAC | -0.0723
51 | AAGAGCCG | -0.0498
52 | GGGCACGA | -0.214
53 | CCTTGACC | -0.202
54 | GGCGAGAA | -0.105
55 | AGTCCGTG | -0.0826
56 | CTGAACTA | 0.135
57 | CGTCGTAG | -0.142
58 | CGAGCGAA | -0.0361
59 | TTGCCCAA | 0.0603
60 | GTCGAGAC | -0.164
61 | AATTGCAG | 0.102
62 | ACGGCACG | -0.204
63 | CGTATGTA | 0.0655
64 | TACTCACA | -0.00265
65 | GAGGGTCC | -0.211
66 | AACTCATG | -0.0512

Row | Sequence | PBM 8-mer E-score
67 | GGCGGTCA | -0.208
68 | TAGTTAAA | 0.273
69 | CATGATCC | -0.133
70 | GCGCCGAA | -0.17
71 | ACCCAGCC | -0.017
72 | CAGAGCCC | -0.374
73 | CCGTGGGA | -0.301
74 | CCTACCTA | -0.0884
75 | AAAGCCGA | -0.0186
76 | ACGTCATC | -0.144
77 | GCCGACCC | -0.307
78 | ACTGTTGC | 0.0922
79 | GAGTCAAA | 0.0768
80 | AGCTAAGA | -0.0322
81 | CCATGGGC | -0.256
82 | CATTCTCG | -0.135
83 | GGTGTGAC | -0.159
84 | CAACACTC | -0.147
85 | ATTGATAC | 0.206
86 | CACATAAA | 0.179
